Experimental data taken from the supplement of paper PMC10126150.
Sequences with one replicate were seen in a single cluster, so their values are uncertain.

tested on: ATP; assay: switch fluorescence ratio, 500 uM ATP over buffer (Cy3 cluster intensity, sum of 5 cycles each) (fold (ratio)); higher = stronger signal-on switching upon ATP binding; sequences stand for … in TCGTCGGCAGCGTCAGATGTGTATAAGAGACAGTTTTTTTTTTTTTTTTTTTTTTTTT…TC; details: aptamer strand: ATP DNA aptamer (quencher-CACCTGGGGGAGTATTGCGGAGGAAGG + anchor), 100 nM annealed; ATP concentration: 500 uM; one replicate
Summary of the method: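 Clusters with intensities outside 100-1000 RFU were excluded. The remaining Cy3-labelled switching-strand clusters on a modified Illumina MiSeq flow-cell had been annealed to 100 nM quencher-labelled ATP aptamer and imaged in selection buffer, then after 15 min with 500 uM ATP at 22 °C, for five cycles separated by NaOH stripping and re-annealing. The fluorescence ratio, averaged per switch-domain sequence, is each cluster's summed target-cycle Cy3 intensity over its summed buffer-cycle Cy3 intensity.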
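Note: ATP exposure 15 min at 22 °C before imaging.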

| Sequence | switch fluorescence ratio |
| --- | --- |
| CATAGGGGTG | 1.03 |
| ATCACTGCAA | 2.62 |
| GGTCCACTTT | 1.01 |
| TCATTTTTGA | 1 |
| ATAGGGAACA | 1.02 |
| AGTCAGGCCA | 1.03 |
| TTGGGCTTCG | 1.11 |
| ATCAGAAGAT | 0.977 |
| CAGGGTCAC | 1.01 |
| TCGGCCGTGA | 1.1 |
| TCTAATCCCA | 1.15 |
| AAAATAGCTG | 1.17 |
| CGAGCCAAGA | 1.07 |
| ATAATATCCA | 1.04 |
| ACCACGAGGC | 1.05 |
| CCGCTCACGT | 1.45 |
| CAACGTATAG | 1.07 |
| GGAATTAATT | 0.852 |
| GGTGTCCCC | 1.09 |
| TGTACGGGG | 1.01 |
| ACTGCGGGTG | 1.26 |
| AGGATATGTG | 1.01 |

| Sequence | switch fluorescence ratio |
| --- | --- |
| AAGTTAGAAC | 0.99 |
| GGACATGTAA | 0.954 |
| CTGCCCCGGA | 1.2 |
| TGCCTGTGT | 1.02 |
| AGGATGGCTC | 0.981 |
| CGAATCGGAT | 1.01 |
| TTTTATTCGA | 0.999 |
| GTGTCTCATA | 1.02 |
| TCTGTGTTAC | 1.17 |
| TGTGTAACCC | 0.966 |
| CTCTAACAGT | 1.04 |
| AACTAAGTAC | 1.26 |
| AGAAGAAATT | 1.01 |
| TACCATGAAC | 1.12 |
| CCGATGTCAA | 3.88 |
| AAGCCTTGTG | 1.01 |
| TCCGCCACCG | 1.47 |
| TGGTGATTTT | 0.983 |
| CATTGCGTTA | 1.04 |
| TGTCCCAAAC | 1.21 |
| CTGAAACTTG | 1.05 |
| GTGTCGGGTT | 0.991 |

| Sequence | switch fluorescence ratio |
| --- | --- |
| AGCGTTGAGC | 1.01 |
| GAATTACTGT | 1.08 |
| CGGACAGCGA | 1.64 |
| TAACGAGTCA | 1.04 |
| CAGACTGATT | 1.07 |
| GGGACAGTTC | 1 |
| TGTGAGTCAA | 1.19 |
| TAATTTATC | 1.01 |
| CGAAAAGATT | 1.03 |
| CATAGGTTT | 0.989 |
| AAATACTGGG | 1.09 |
| CTGATTAAGG | 0.981 |
| GTGATGTAT | 1.02 |
| TAGAATGGGA | 0.975 |
| GCTTCCAGTC | 1.02 |
| ATCTAAGCCC | 0.962 |
| AAAGCGTCCG | 1.04 |
| GATCAAGCTT | 0.948 |
| TGACGCTCGC | 1.24 |
| ACGGTTAGAG | 1.01 |
| GTCGAAGAAA | 0.974 |
| ATCCTACGCA | 3.91 |

| Sequence | switch fluorescence ratio |
| --- | --- |
| CATAGCAACT | 1.78 |
| TTACAGAC | 1.15 |
| GGAAGATCAG | 1 |
| TACGTTTCTT | 1.02 |
| CGCCGTCGTC | 1.01 |
| GAGTTGCTAA | 0.97 |
| CGTCTTAGG | 0.965 |
| GGTGCATCT | 1.02 |
| ATTTTTGTAC | 0.97 |
| ACCGTGGGCT | 0.96 |
| TAAAACGGGC | 1.03 |
| GCCTATTCTA | 0.987 |
| CGGCACCCAT | 1.03 |
| ATGCCCGGGA | 0.978 |
| TTTATACTGA | 1.02 |
| GATGATCTCT | 0.995 |
| CATGAACTTA | 1.03 |
| GCACATCTTT | 1 |
| ATGTGTCAA | 0.999 |
